# Laboratory results: the supplement of paper PMC8748497
# Some of the results follow.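 The calls were made as follows: active = fold change of at least 2 over DMSO control; inactive = below 2-fold.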 Most values come without repeats; read them as rough.
# Test system: HEK293 ARE/NRF2-luciferase reporter
# Assay: ARE/NRF2 luciferase reporter activity, fold change over DMSO control; higher = stronger NRF2/ARE reporter activation
# Conditions: 10 µM; 24 h
row,Structure (SMILES),ARE/NRF2 luciferase reporter activity
1,CC(=O)/N=c1/sc(S(N)(=O)=O)nn1C,inactive: 1.35
2,CCC[C@H](N[C@@H](C)C(=O)N1[C@H](C(=O)O)C[C@@H]2CCCC[C@@H]21)C(=O)O,inactive: 0.908
3,COC(=O)c1c(OC)cc2c(c1C)Oc1c(Cl)c(O)c(Cl)c(C)c1C(=O)O2,active: 2.31
4,Cn1c(=O)c2c(ncn2CC(O)CO)n(C)c1=O (centres undefined),inactive: 0.96
5,O=c1[nH]c(=O)n([C@H]2C[C@H](O)[C@@H](CO)O2)cc1F,inactive: 0.4
6,CC(C)[C@H](N)C(=O)O,inactive: 0.891
7,O=c1[nH]c(=O)n([C@H]2C[C@H](O)[C@@H](CO)O2)cc1I,inactive: 0.583
8,CC(=O)NCCc1ccc(O)c(-c2c(O)c(O)c3c(c2O)C(=O)c2c(cc(O)c(C(=O)O)c2C(=O)O)C3=O)c1,inactive: 0.758
9,NCCCS(=O)(=O)O,inactive: 1
10,COc1ccc2c(=O)cc(-c3ccccc3)oc2c1OC,active: 2.12
11,Cc1cc(N)c2ccccc2[n+]1CCCCCCCCCC[n+]1c(C)cc(N)c2ccccc21,inactive: 1.04
12,O=c1c(O)c(-c2ccc(O)cc2O)oc2cc(O)cc(O)c12,inactive: 0.839
13,C#CCN[C@@H]1CCc2ccccc21,inactive: 0.647
14,COc1cc(C(=O)N2CCOCC2)cc(OC)c1OC,inactive: 0.96
15,COc1ccc(/C=C/C(=O)Nc2ccccc2C(=O)O)cc1OC,inactive: 1.69
16,O=C1CC(c2ccc(O)cc2)Oc2ccccc21 (centres undefined),active: 3.97
17,CC(C)(Oc1ccc(C2CC2(Cl)Cl)cc1)C(=O)O (centres undefined),active: 2.74
18,Clc1ccc(COC(Cn2ccnc2)c2ccc(Cl)cc2Cl)c(Cl)c1 (centres undefined),inactive: 0.259
19,Cc1ccccc1C(OCCN(C)C)c1ccccc1 (centres undefined),inactive: 0.764
20,Cc1c(C)c2c(c(C)c1O)CCC(C)(CCCC(C)CCCC(C)CCCC(C)C)O2 (stereo not drawn) [alpha-TOCHOPHEROL [4 mM]],inactive: 0.809

row,Structure (SMILES),ARE/NRF2 luciferase reporter activity
1,CC(C)Cn1c(=O)n(C)c(=O)c2nc[nH]c21,inactive: 0.865
2,COC1=CC(=O)C(O)=C/C1=C\C=C\c1ccccc1,inactive: 0.896
3,COc1ccc2[nH]cc(CCNC(C)=O)c2c1,inactive: 1.3
4,COC(=O)[C@H]1[C@H]2C[C@H]3c4[nH]c5cc(OC)ccc5c4CCN3C[C@H]2C[C@@H](OC(=O)c2cc(OC)c(OC)c(OC)c2)[C@@H]1OC,inactive: 1.28
5,CC[C@@H](C(=O)[C@@H](C)[C@@H](O)[C@H](C)CCc1ccc(C)c(O)c1C(=O)O)[C@H]1O[C@](CC)([C@H]2CC[C@](O)(CC)[C@H](C)O2)C[C@@H]1C,inactive: 0.843
6,Cc1cc(O)c2c(c1)C(=O)c1cc(O)cc(O)c1C2=O,inactive: 1.55
7,c1ccc(C2CN3CCSC3=N2)cc1 (centres undefined),inactive: 0.878
8,CC(C)Oc1ccc2c(=O)c(-c3ccccc3)coc2c1,active: 2.79
9,C[C@H]1[C@H](C)CC[C@]2(C(=O)O)CC[C@]3(C)C(=CC[C@@H]4[C@@]5(C)CC[C@H](O)C(C)(C)[C@@H]5CC[C@]43C)[C@H]12,active: 2.34
10,CC(=O)OC/C=C(\C)CC/C=C(\C)CC/C=C(\C)CC/C=C(\C)CC/C=C(\C)CC/C=C(\C)CC/C=C(\C)CC/C=C(\C)CCC=C(C)C,inactive: 0.807
11,O=C([O-])[C@H](O)[C@@H](O)[C@H](O)[C@H](O)CO.[Na+],inactive: 0.89
12,COCCCOc1ccnc(C[S+]([O-])c2nc3ccccc3[nH]2)c1C (centres undefined),active: 3.08
13,CC(C)=CCc1c(O)cc2oc(C)cc(=O)c2c1O,active: 2.2
14,C[C@]12CC[C@@H]3c4ccc(OS(=O)(=O)O)cc4CC[C@H]3[C@@H]1CCC2=O,inactive: 1.01
15,C[C@@H](c1ncncc1F)[C@](O)(Cn1cncn1)c1ccc(F)cc1F,inactive: 0.692
16,CC(N/C(=N\C#N)Nc1ccncc1)C(C)(C)C (centres undefined),inactive: 0.942
17,CN(C)CCCN1c2ccccc2CCc2ccc(Cl)cc21,inactive: 0.823
18,COc1cc(-c2ccc(/N=N/c3ccc4c(S(=O)(=O)O)cc(S(=O)(=O)O)c(N)c4c3O)c(OC)c2)ccc1/N=N/c1ccc2c(S(=O)(=O)O)cc(S(=O)(=O)O)c(N)c2c1O,inactive: 0.436
19,CC(C)C[C@H](N)C(=O)N[C@@H](C)C(=O)O,inactive: 0.899
